# Measurements reported in the supplement of paper PMC8728848.
# Some of the results follow.
# B1: SBD-G4S3-SBD (protein)
# chain: MASIPSSASVQLDSYNYDGSTFSGKIYVKNIAYSKKVTVVYADGSDNWNNNGNIIAASFSGPISGSNYEYWTFSASVKGIKEFYIKYEVSGKTYYDNNNSANYQVSTGGGGSGGGGSGGGGSEFASIPSSASVQLDSYNYDGSTFSGKIYVKNIAYSKKVTVVYADGSDNWNNNGNIIAASFSGPISGSNYEYWTFSASVKGIKEFYIKYEVSGKTYYDNNNSANYQVST
# What was measured:
# Experiment in all cases: glycan array binding signal (z-score within array); higher = stronger binding
# Conditions in all cases: glycan notation: IUPAC condensed, linker removed
# [1] = molecular target: Neu5Ac(a2-3)Gal(b1-4)GlcNAc
# Outline: (§1)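 The Consortium for Functional Glycomics database supplied 3228 glycan arrays, of which those lacking an available protein sequence were dropped. The binding signal, a within-array Z-score, was averaged across arrays of the same protein sequence and across linkers. Negative scores can be read as non-binding.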
# [2] = molecular target: Neu5Ac(a2-3)Gal(b1-4)GlcNAc(b1-2)Man
# Outline: as §1
# [3] = molecular target: Neu5Ac(a2-3)Gal(b1-4)GlcNAc(b1-2)Man(a1-3)[GlcNAc(b1-4)][Neu5Ac(a2-3)Gal(b1-4)GlcNAc(b1-2)Man(a1-6)]Man(b1-4)GlcNAc(b1-4)GlcNAc
# Outline: as §1
# [4] = molecular target: Neu5Ac(a2-3)Gal(b1-4)GlcNAc(b1-2)Man(a1-3)[Neu5Ac(a2-3)Gal(b1-4)GlcNAc(b1-2)Man(a1-6)]Man(b1-4)GlcNAc(b1-4)GlcNAc
# Outline: as §1
# [5] = molecular target: Neu5Ac(a2-3)Gal(b1-4)GlcNAc(b1-2)Man(a1-3)[Neu5Ac(a2-3)Gal(b1-4)GlcNAc(b1-2)Man(a1-6)]Man(b1-4)GlcNAc(b1-4)[Fuc(a1-6)]GlcNAc
# Outline: as §1
# [6] = molecular target: Neu5Ac(a2-3)Gal(b1-4)GlcNAc(b1-2)Man(a1-3)[Neu5Ac(a2-6)Gal(b1-4)GlcNAc(b1-2)Man(a1-6)]Man(b1-4)GlcNAc(b1-4)GlcNAc
# Outline: as §1
# [7] = molecular target: Neu5Ac(a2-3)Gal(b1-4)GlcNAc(b1-2)[Neu5Ac(a2-3)Gal(b1-4)GlcNAc(b1-4)]Man(a1-3)[GlcNAc(b1-4)][Neu5Ac(a2-3)Gal(b1-4)GlcNAc(b1-2)[Neu5Ac(a2-3)Gal(b1-4)GlcNAc(b1-6)]Man(a1-6)]Man(b1-4)GlcNAc(b1-4)GlcNAc
# Outline: as §1
# [8] = molecular target: Neu5Ac(a2-3)Gal(b1-4)GlcNAc(b1-2)[Neu5Ac(a2-3)Gal(b1-4)GlcNAc(b1-4)]Man(a1-3)[GlcNAc(b1-4)][Neu5Ac(a2-3)Gal(b1-4)GlcNAc(b1-4)Man(a1-6)]Man(b1-4)GlcNAc(b1-4)GlcNAc
# Outline: as §1
# [9] = molecular target: Neu5Ac(a2-3)Gal(b1-4)GlcNAc(b1-2)[Neu5Ac(a2-3)Gal(b1-4)GlcNAc(b1-6)]Man(a1-6)[Neu5Ac(a2-3)Gal(b1-4)GlcNAc(b1-2)Man(a1-3)]Man(b1-4)GlcNAc(b1-4)GlcNAc
# Outline: as §1
# [10] = molecular target: Neu5Ac(a2-3)Gal(b1-4)GlcNAc(b1-2)[Neu5Ac(a2-3)Gal(b1-4)GlcNAc(b1-6)]Man(a1-6)[Neu5Ac(a2-3)Gal(b1-4)GlcNAc(b1-2)Man(a1-3)][GlcNAc(b1-4)]Man(b1-4)GlcNAc(b1-4)GlcNAc
# Outline: as §1
# [11] = molecular target: Neu5Ac(a2-3)Gal(b1-4)GlcNAc(b1-3)Gal
# Outline: as §1
# [12] = molecular target: Neu5Ac(a2-3)Gal(b1-4)GlcNAc(b1-3)Gal(b1-3)GlcNAc
# Outline: as §1
# [13] = molecular target: Neu5Ac(a2-3)Gal(b1-4)GlcNAc(b1-3)Gal(b1-4)GlcNAc
# Outline: as §1
# [14] = molecular target: Neu5Ac(a2-3)Gal(b1-4)GlcNAc(b1-3)Gal(b1-4)GlcNAc(b1-2)Man(a1-3)[Neu5Ac(a2-3)Gal(b1-4)GlcNAc(b1-3)Gal(b1-4)GlcNAc(b1-2)Man(a1-6)]Man(b1-4)GlcNAc(b1-4)GlcNAc
# Outline: as §1
# [15] = molecular target: Neu5Ac(a2-3)Gal(b1-4)GlcNAc(b1-3)Gal(b1-4)GlcNAc(b1-3)Gal(b1-4)GlcNAc
# Outline: as §1
# [16] = molecular target: Neu5Ac(a2-3)Gal(b1-4)GlcNAc(b1-3)Gal(b1-4)GlcNAc(b1-3)Gal(b1-4)GlcNAc(b1-2)Man(a1-3)[Neu5Ac(a2-3)Gal(b1-4)GlcNAc(b1-3)Gal(b1-4)GlcNAc(b1-3)Gal(b1-4)GlcNAc(b1-2)Man(a1-6)]GalNAc
# Outline: as §1
# [17] = molecular target: Neu5Ac(a2-3)Gal(b1-4)GlcNAc(b1-3)Gal(b1-4)GlcNAc(b1-3)GalNAc
# Outline: as §1
# [18] = molecular target: Neu5Ac(a2-3)Gal(b1-4)GlcNAc(b1-3)Gal(b1-4)GlcNAc(b1-3)[Neu5Ac(a2-3)Gal(b1-4)GlcNAc(b1-3)Gal(b1-4)GlcNAc(b1-6)]GalNAc
# Outline: as §1
# [19] = molecular target: Neu5Ac(a2-3)Gal(b1-4)GlcNAc(b1-3)Gal(b1-4)GlcNAc(b1-6)[Gal(b1-3)]GalNAc
# Outline: as §1
# [20] = molecular target: Neu5Ac(a2-3)Gal(b1-4)GlcNAc(b1-3)Gal(b1-4)[Fuc(a1-3)]GlcNAc
# Outline: as §1
# [21] = molecular target: Neu5Ac(a2-3)Gal(b1-4)GlcNAc(b1-3)GalNAc
# Outline: as §1
# [22] = molecular target: Neu5Ac(a2-3)Gal(b1-4)GlcNAc(b1-3)[Neu5Ac(a2-3)Gal(b1-4)GlcNAc(b1-6)]GalNAc
# Outline: as §1
# [23] = molecular target: Neu5Ac(a2-3)Gal(b1-4)GlcNAc(b1-6)GalNAc
# Outline: as §1
# [24] = molecular target: Neu5Ac(a2-3)Gal(b1-4)GlcNAc(b1-6)[Gal(b1-3)]GalNAc
# Outline: as §1
# [25] = molecular target: Neu5Ac(a2-3)Gal(b1-4)GlcNAc(b1-6)[Neu5Ac(a2-3)Gal(b1-3)]GalNAc
# Outline: as §1
# [26] = molecular target: Neu5Ac(a2-3)Gal(b1-4)GlcNAc6S
# Outline: as §1
# [27] = molecular target: Neu5Ac(a2-3)Gal(b1-4)[Fuc(a1-3)]GlcNAc
# Outline: as §1
# [28] = molecular target: Neu5Ac(a2-3)Gal(b1-4)[Fuc(a1-3)]GlcNAc(b1-2)Man
# Outline: as §1
# [29] = molecular target: Neu5Ac(a2-3)Gal(b1-4)[Fuc(a1-3)]GlcNAc(b1-3)Gal
# Outline: as §1
# [30] = molecular target: Neu5Ac(a2-3)Gal(b1-4)[Fuc(a1-3)]GlcNAc(b1-3)Gal(b1-4)GlcNAc
# Outline: as §1
# [31] = molecular target: Neu5Ac(a2-3)Gal(b1-4)[Fuc(a1-3)]GlcNAc(b1-3)Gal(b1-4)[Fuc(a1-3)]GlcNAc(b1-3)Gal(b1-4)[Fuc(a1-3)]GlcNAc
# Outline: as §1
# [32] = molecular target: Neu5Ac(a2-3)Gal(b1-4)[Fuc(a1-3)]GlcNAc(b1-3)GalNAc
# Outline: as §1
# [33] = molecular target: Neu5Ac(a2-3)Gal(b1-4)[Fuc(a1-3)]GlcNAc(b1-6)[Gal(b1-3)]GalNAc
# Outline: as §1
# [34] = molecular target: Neu5Ac(a2-3)Gal(b1-4)[Fuc(a1-3)]GlcNAc(b1-6)[Neu5Ac(a2-3)Gal(b1-3)]GalNAc
# Outline: as §1
# [35] = molecular target: Neu5Ac(a2-3)Gal(b1-4)[Fuc(a1-3)]GlcNAc6S
# Outline: as §1
# [36] = molecular target: Neu5Ac(a2-3)Gal6S(b1-4)GlcNAc
# Outline: as §1
# [37] = molecular target: Neu5Ac(a2-3)Gal6S(b1-4)[Fuc(a1-3)]GlcNAc
# Outline: as §1
# Neu5Ac(a2-3)GalNAc = molecular target: Neu5Ac(a2-3)GalNAc
# Outline: as §1
binder,measurement,setting,value
B1,glycan array binding signal (z-score),[1],-0.409
same,glycan array binding signal (z-score),[2],-0.012
same,glycan array binding signal (z-score),[3],-0.377
same,glycan array binding signal (z-score),[4],-0.384
same,glycan array binding signal (z-score),[5],-0.421
same,glycan array binding signal (z-score),[6],-0.33
same,glycan array binding signal (z-score),[7],-0.416
same,glycan array binding signal (z-score),[8],-0.415
same,glycan array binding signal (z-score),[9],-0.33
same,glycan array binding signal (z-score),[10],-0.421
same,glycan array binding signal (z-score),[11],-0.415
same,glycan array binding signal (z-score),[12],-0.374
same,glycan array binding signal (z-score),[13],-0.425
same,glycan array binding signal (z-score),[14],-0.353
same,glycan array binding signal (z-score),[15],-0.378
same,glycan array binding signal (z-score),[16],-0.19
same,glycan array binding signal (z-score),[17],-0.285
same,glycan array binding signal (z-score),[18],-0.299
same,glycan array binding signal (z-score),[19],-0.378
same,glycan array binding signal (z-score),[20],-0.429
same,glycan array binding signal (z-score),[21],-0.327
same,glycan array binding signal (z-score),[22],-0.377
same,glycan array binding signal (z-score),[23],-0.299
same,glycan array binding signal (z-score),[24],-0.386
same,glycan array binding signal (z-score),[25],-0.378
same,glycan array binding signal (z-score),[26],-0.398
same,glycan array binding signal (z-score),[27],-0.397
same,glycan array binding signal (z-score),[28],-0.32
same,glycan array binding signal (z-score),[29],-0.399
same,glycan array binding signal (z-score),[30],-0.264
same,glycan array binding signal (z-score),[31],-0.374
same,glycan array binding signal (z-score),[32],-0.028
same,glycan array binding signal (z-score),[33],4.53
same,glycan array binding signal (z-score),[34],1.28
same,glycan array binding signal (z-score),[35],-0.369
same,glycan array binding signal (z-score),[36],-0.391
same,glycan array binding signal (z-score),[37],-0.415
same,glycan array binding signal (z-score),Neu5Ac(a2-3)GalNAc,-0.406
